Test results published in patent US11000038B2, “Pyridone compounds and agricultural and horticultural fungicides containing the same as active ingredients” (priority 2017, dated 2021).

Legend:
[1] = tested on: cucumber anthracnose fungi (Colletotrichum orbiculare); assay: Test Example H: cucumber anthracnose, spray treatment of cucumber plants; conditions: cucumber anthracnose, 250 ppm spray, 6 to 10 days after inoculation
[2] = tested on: tomato late blight fungi (Phytophthora infestans); format: in vivo; conditions: tomato late blight, spray treatment
[3] = tested on: rice blast fungi (Magnaporthe grisea); format: in vivo; conditions: rice blast, spray treatment

Structure (SMILES) | Test H control value [1] | Test F control value [2] | Test A control value [3]
CCc1ccc(OCOC)cc1-n1cc(C)c(=O)c(C)c1-c1c(F)cccc1F [Compound 620] | H (H shows the control value of more than 50%) | L (L shows the control value of 50% or less) | H (H shows the control value of more than 50%)
CCc1c(-c2ccc(F)cc2Cl)n(-c2ccccc2)cc(Br)c1=O [Compound 621] | H (H shows the control value of more than 50%) | L (L shows the control value of 50% or less) | H (H shows the control value of more than 50%)
CCc1c(-c2ccc(F)cc2C)n(-c2ccccc2)cc(Br)c1=O [Compound 622] | L (L shows the control value of 50% or less) | L (L shows the control value of 50% or less) | L (L shows the control value of 50% or less)
CCc1c(-c2ccc(F)cc2Cl)n(-c2ccccc2)cc(C)c1=O [Compound 623] | H (H shows the control value of more than 50%) | L (L shows the control value of 50% or less) | H (H shows the control value of more than 50%)
Cc1cn(-c2ccccc2)c(-c2cc(Cl)cc(Cl)c2)c(C)c1=O [Compound 624] | L (L shows the control value of 50% or less) | L (L shows the control value of 50% or less) | L (L shows the control value of 50% or less)
C#CCOc1ccc(CC)c(-n2cc(C)c(=O)c(C)c2-c2c(F)cccc2F)c1 [Compound 625] | L (L shows the control value of 50% or less) | H (H shows the control value of more than 50%) | L (L shows the control value of 50% or less)
CCc1ccc(OCCOC)cc1-n1cc(C)c(=O)c(C)c1-c1c(F)cccc1F [Compound 626] | L (L shows the control value of 50% or less) | L (L shows the control value of 50% or less) | L (L shows the control value of 50% or less)
CCc1ccc(OC)cc1-n1cc(Br)c(=O)c(CC)c1-c1c(F)cccc1F [Compound 627] | H (H shows the control value of more than 50%) | L (L shows the control value of 50% or less) | L (L shows the control value of 50% or less)
CCc1ccc(OC)cc1-n1cc(C)c(=O)c(CC)c1-c1c(F)cccc1F [Compound 628] | H (H shows the control value of more than 50%) | L (L shows the control value of 50% or less) | L (L shows the control value of 50% or less)
